Laboratory results: PubChem BioAssay AID1476 (National Center for Advancing Translational Sciences (NCATS), 2009)
The whole screen tested about 200,000 compounds, of which about 4,500 (2.2%) were called active. The shares of active, inactive and inconclusive entries below differ from those in the screen. Calls come from the whole dose curve; as a rule, active = well fitted inhibition curve with a large enough effect; inconclusive = small, poorly fitted or top-dose-only effect, or effect the other way; inactive = flat fitted curve, though single readings scatter. A potency beside an inconclusive call is a rough fit, not a confirmed value.

molecular target: Cruzipain (Trypanosoma cruzi) (UniProt P25779); experiment: qHTS Assay for Promiscuous and Specific Inhibitors of Cruzain (without detergent); details: purified cruzain, Z-FR-AMC fluorescence, no detergent; note: nearly all actives have a fitted effect of over 40% in size;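 for max response, negative = inhibition: plate controls were enzyme without inhibitor for no effect and buffer without enzyme for full effect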
Chain of UniProt P25779 (P25779 whole entry, looked up): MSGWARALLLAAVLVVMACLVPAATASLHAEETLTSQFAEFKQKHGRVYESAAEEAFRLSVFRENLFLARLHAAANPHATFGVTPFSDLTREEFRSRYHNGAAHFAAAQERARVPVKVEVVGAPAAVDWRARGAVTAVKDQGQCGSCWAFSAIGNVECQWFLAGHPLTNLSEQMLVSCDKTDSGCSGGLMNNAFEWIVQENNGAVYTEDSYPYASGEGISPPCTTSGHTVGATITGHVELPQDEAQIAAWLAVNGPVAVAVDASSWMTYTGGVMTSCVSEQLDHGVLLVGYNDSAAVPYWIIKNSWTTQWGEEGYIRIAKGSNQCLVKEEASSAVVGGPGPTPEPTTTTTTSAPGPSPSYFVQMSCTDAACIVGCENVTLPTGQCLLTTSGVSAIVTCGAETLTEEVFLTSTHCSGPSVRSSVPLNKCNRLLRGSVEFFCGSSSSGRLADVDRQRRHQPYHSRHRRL
In short: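 Purified cruzain at 1.5 nM, pre-incubated 15 min with compound at room temperature in 100 mM sodium acetate pH 5.5, 5 mM DTT, 0.00005% Triton X-100. Reaction started with 2 uM Z-FR-AMC; AMC fluorescence increase over 60 s gives rate.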
Potency is the fitted concentration of half-maximal effect; tags give direction and shape of the fitted curve.

SMILES | max response, negative = inhibition | Potency
Cc1ccc(CNC(=O)c2ccc(Nc3nc4ccccc4n4nnnc34)cc2)cc1 | inactive: -12.3% | 
COc1cc2c(cc1OC)[C@@H]1CC(=O)[C@@H](CC(C)C)CN1CC2 | inactive: -9.49% | 
O=C(NC(=S)Nc1nc2c(s1)CSc1ccccc1-2)c1ccccc1 |  | active: 7.94 µM
CCOC(=O)c1c(NC(=O)c2cc(-c3ccc(OC)c(OC)c3)on2)sc(C)c1C | inactive: -4.85% | 
CCN(CC)CCCNC(=O)CCC(=O)NNc1nc2ccccc2c2nc(C)nn12 |  | inconclusive: 39.8 µM [activator, single point]
COc1ccccc1N1CCN(C(CNC(=O)C(=O)NCc2cccnc2)c2cccnc2)CC1 (centres undefined) |  | inconclusive: 12.6 µM [activator, partial curve, poor fit]
O=C(NCCc1csc(-c2ccc(C(F)(F)F)cc2)n1)c1cccs1 |  | inconclusive: 39.8 µM [activator, single point]
COc1ccccc1C(=O)Nc1ccc(OCc2nnc3c4ccccc4c(C)nn23)cc1 |  | inconclusive: 12.6 µM [activator, partial curve]
COc1ccccc1CNC(=O)c1c(N)n(CCCN2CCOCC2)c2nc3ccccc3nc12 |  | inconclusive: 31.6 µM [activator, single point]
CC(=O)N1CCCc2cc(S(=O)(=O)N3CCC(C(=O)Nc4ccc(C)cc4Cl)CC3)ccc21 |  | inconclusive: 39.8 µM [activator, single point]
COc1ccccc1CNC(=O)c1cc2c(s1)-c1ccc(Cl)cc1SC2 | inactive: -11.7% | 
COc1cc(C2C(C#N)=C(N)Oc3c2ccc2ccccc32)ccc1OCC(=O)Nc1cccc(C)c1 (centres undefined) |  | active: 7.94 µM
O=C(Cc1cccs1)Nc1nc(-c2ccccc2)cs1 | inactive: -0.377% | 
O=C1COc2ccc(C(=O)CSc3nnc(Cc4cccs4)n3-c3ccccc3)cc2N1 |  | inconclusive: 39.8 µM [inhibitor, single point]
O=C(Nc1cccc(Cl)c1)c1c(O)c2c(n(Cc3ccco3)c1=O)CCCC2 |  | active: 7.94 µM
Nc1c(S(=O)(=O)c2ccccc2)c2nc3ccccc3nc2n1/N=C/c1ccco1 |  | inconclusive: 25.1 µM [inhibitor, single point]
COc1ccc(-c2nc(-c3ccccc3)[nH]c(=O)c2C#N)cc1 |  | inconclusive: 39.8 µM [inhibitor, single point]
CSc1ncccc1C(=O)Nc1nc2ccc(Oc3ccccc3)cc2s1 |  | inconclusive: 39.8 µM [inhibitor, single point]
CC(C)(O)[C@H]1O[C@@H]2CC[C@]3(C)[C@@]4(C)c5[nH]c6ccccc6c5C[C@@H]4CC[C@]3(O)C2=CC1=O |  | inconclusive: 31.6 µM [activator, partial curve]
O=C(CNc1cccc2ccccc12)N/N=C/c1ccc(OC(=O)/C=C/c2ccco2)cc1 |  | inconclusive: 39.8 µM [inhibitor, single point]
COc1cccc(C(=O)Oc2c(Sc3ccc(C)cc3)c(C)nn2C(C)(C)C)c1OC | inactive: -0.587% | 
Cc1cc(C)c(NC(=O)CSc2nnc(Cc3cccn3C)n2-c2ccc(F)cc2)c(C)c1 |  | inconclusive: 25.1 µM [activator, single point]

SMILES | max response, negative = inhibition | Potency
Cc1ccc(CNC(=O)C(C)n2nc(C)c3sc4ccccc4c3c2=O)cc1 (centres undefined) |  | active: 3.98 µM
O=C(c1cn(-c2ccccc2)nc1-c1ccc(Cl)s1)N1CCOCC1 |  | inconclusive: 39.8 µM [activator, single point]
CC(=O)c1c(C)oc2c1cc(NS(=O)(=O)c1ccc(C(C)(C)C)cc1)c1ccccc12 |  | inconclusive: 39.8 µM [inhibitor, single point]
CCn1c(=O)cc(OCC(=O)N2CCN(c3cccc(C)c3C)CC2)c2ccccc21 |  | inconclusive: 39.8 µM [activator, single point]
Cc1ccc(CNC(=O)c2ccc(N3CCCC3)c(NC(=O)Nc3ccc(F)c(Cl)c3)c2)cc1 |  | inconclusive: 31.6 µM [inhibitor, single point]
Cc1ccc2c(c1)-c1c(c(C(=O)N3CCN(c4cc(C)ccc4C)CC3)nn1C)CS2 | inactive: -5.39% | 
CC1CC[C@@]23CCC4(C)[C@@]5(C)CCC6C(C)(C)C(=O)CC[C@@]6(C)C5C=C[C@@]4(OC2=O)C3C1C (some centres undefined) | inactive: 4.06% | 
Nc1nn(-c2ccccc2)c(N)c1N=Nc1ccc2c(c1)OCO2 |  | inconclusive: 39.8 µM [inhibitor, single point]
COc1ccc(C(C(=O)Nc2ccc(C(C)C)cc2)N(C)C(=O)CNC(C)=O)cc1 (centres undefined) |  | inconclusive: 31.6 µM [activator, partial curve]
CCOC(=O)c1[nH]c(Cc2[nH]c(C(=O)OCC)c(C)c2CCC(=O)OC)c(CCC(=O)OC)c1C |  | inconclusive: 39.8 µM [activator, single point]
CC1CCCCN1c1nnc(NC(=O)c2cc(-c3ccc(Br)cc3)on2)s1 (centres undefined) |  | inconclusive: 39.8 µM [inhibitor, single point]
CC1CCCC(C)N1C(=O)CSc1nnc(NC(=O)Cc2cccs2)s1 (centres undefined) | inactive: 3.72% | 
COc1cccc(-n2c(SCc3ccc(F)cc3)nc3c([nH]c4ccccc43)c2=O)c1 |  | active: 10 µM
Cc1cccc(C(=O)Nc2ccc(NC(=O)Cc3ccc(Cl)cc3)cc2)c1 |  | inconclusive: 31.6 µM [inhibitor, single point]
Cc1ccc(C2c3cccn3CCN2S(=O)(=O)c2ccc([N+](=O)[O-])cc2)cc1 (centres undefined) |  | active: 31.6 µM
CC(=O)c1nn(-c2ccccc2)cc1C(=O)c1cccc(Br)c1 |  | inconclusive: 39.8 µM [inhibitor, single point]
COc1ccc(CCNC(=O)CN2CCN(c3cccc(Cl)c3)CC2)cc1OC |  | inconclusive: 39.8 µM [activator, single point]
Cc1cccc(/C=N/NC(=O)c2cc3c(s2)-c2ccccc2CC3)c1 |  | inconclusive: 15.8 µM [inhibitor, single point]
CCOC(=O)N1CCN(c2ncnc3c2cnn3-c2ccc(OC)cc2)CC1 |  | inconclusive: 39.8 µM [inhibitor, single point]
Nc1nnc(SCCCC(=O)c2ccccc2)s1 | inactive: 2.37% | 
Cc1ccc2nc(NC(=O)c3cc(-c4ccco4)nc4ccccc34)sc2c1 |  | inconclusive: 31.6 µM [inhibitor, single point]
CCNc1ccc(C(=O)OCC(=O)c2cc(C)n(Cc3ccc4c(c3)OCO4)c2C)cc1[N+](=O)[O-] |  | active: 15.8 µM

SMILES | max response, negative = inhibition | Potency
CCOC(=O)c1cc(-c2ccc(C)cc2)n(CC(=O)Nc2cccc(C(C)=O)c2)c1C |  | inconclusive: 25.1 µM [activator, partial curve]
Cc1ccc(NC(=O)c2nnn(CC(=O)Nc3ccccc3)c2N)cc1C |  | inconclusive: 31.6 µM [inhibitor, single point]
CCOC(=O)CSc1nnc(CCCCCN2C(=O)c3cccc4cccc(c34)C2=O)o1 |  | inconclusive: 39.8 µM [activator, single point]
Clc1ccc2[nH]cc(-c3nnnn3-c3ccc4ccccc4c3)c2c1 |  | inconclusive: 39.8 µM [inhibitor, single point]
Cc1nn(Cc2ccccc2)c(C)c1NC(=O)c1cc(C(C)C)on1 | inactive: 3.65% | 
O=C(Nc1cccc(F)c1)N1CC[C@@]2(CCCN(C(=O)c3cc(C(F)(F)F)cc(C(F)(F)F)c3)C2)C1 |  | inconclusive: 39.8 µM [activator, single point]
CCOC(=O)c1sc(NC(=O)c2nc(SCC)ncc2Cl)c(C(=O)OCC)c1C | inactive: -2.14% | 
N#C/C(=C\c1ccc(-c2ccccc2[N+](=O)[O-])o1)C(=O)Nc1nc(-c2cccs2)cs1 |  | active: 6.31 µM
COc1ccc(CNC(=O)c2cc3c(=O)n(Cc4cccs4)ccc3nc2C)cc1 |  | inconclusive: 31.6 µM [activator, single point]
COC(=O)Cn1c(=NC(=O)c2cc(OC)c(OC)c(OC)c2)sc2cc(OC)ccc21 |  | inconclusive: 39.8 µM [activator, single point]
COC(=O)c1ccc(CSc2nc3c([nH]c4ccccc43)c(=O)n2-c2cccc(OC)c2)o1 |  | active: 25.1 µM
CC(=O)Nc1ccc(S(=O)(=O)N2CCN(c3cc(C)ccc3C)CC2)cc1 |  | inconclusive: 39.8 µM [activator, single point]
COC(=O)[C@H](COC(C)(C)C)NC(=O)O[C@@H]1C(=O)c2cc(Br)ccc2O[C@H]1c1cccc(OC)c1 | inactive: 4.78% | 
Cc1ccc(C(c2sc3nc(C)nn3c2O)N2CCN(c3ccccc3F)CC2)cc1 (centres undefined) |  | inconclusive: 39.8 µM [activator, single point]
Nc1nnnn1/N=C/c1ccccc1OCc1ccc(Cl)cc1Cl |  | active: 15.8 µM
Cc1cc(=O)n2c(C(=O)Nc3ccc(C)c(C)c3)c(C(=O)Nc3ccccc3)sc2n1 | inactive: -6.27% | 
COc1ccc(NC(=O)/C(C#N)=C/c2c(C)nn(-c3ccc(F)cc3)c2Cl)cc1OC |  | inconclusive: 31.6 µM [activator, single point]
COc1cccc(CNC(=O)Cn2cc3c(n2)-c2c(oc(C(=O)N4CCOCC4)c2C)CC3)c1 | inactive: 5.76% | 
CCCCn1c(CCNC(=O)c2ccc(F)cc2)nc2ccccc21 | inactive: 9.2% | 
COc1ccccc1CNc1nc(-c2ccco2)nn1C(=O)c1ccccc1[N+](=O)[O-] |  | inconclusive: 31.6 µM [inhibitor, single point]
